The values below come from PubChem BioAssay AID1508642 (National Center for Advancing Translational Sciences (NCATS), 2021).

The campaign covered roughly 43,000 compounds. About 200 (0.47%) were called active. Inconclusive results (about 12%) are left out. The call rests on the fitted dose curve; in most records, active means well fitted cell-killing curve with a large enough effect; inconclusive means small, poorly fitted or top-dose-only effect, or effect the other way; inactive means flat fitted curve, though single readings scatter. Some of the results follow.
On the % scale 0 is the no-effect control and ±100 the full control effect.

The nature of the assay: Cell viability qHTS assay in S16 Pmp22-F2sN cells. Further: nearly all actives have a fitted effect of over 65% in size. Conditions: S16 Pmp22-F2sN Schwann cells (luciferase reporters placed in the Pmp22 gene) viability, CellTiter-Glo, 24 h; series mostly up to 57.5 µM; activity change, negative = cytotoxicity: at the top concentration. The procedure, abridged: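 S16 Schwann cells carrying the Pmp22-F2sN reporter, seeded in 1536-well format, were exposed to library compounds for 24 h at 37C. Viability was read as CellTiter-Glo luminescence after 15 min at room temperature.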
In general terms: In qHTS, concentration-response curves come from the screen itself.
In the case of `COCc1cc(C)nc2sc3c(=O)n(-c4ccccc4C(F)(F)F)nnc3c12`, the “activity change, negative = cytotoxicity” value was inactive: -6.48%.

Consider `CCc1ccccc1NC(=O)c1sc(-n2nc(C)c(Cc3ccccc3)c2C)nc1C`, for which the “activity change, negative = cytotoxicity” value is inactive: -14.8%.

On to `Cc1cccc(NC(=O)C2CCN(S(=O)(=O)c3ccc4c(c3)CCCN4C(=O)C3CCC3)CC2)c1`, for which the “activity change, negative = cytotoxicity” value is inactive: -24.5%.

`COCCCn1c(=O)c2sccc2n2c(CCCC(=O)NC3CCC(C)CC3)nnc12` (stereo unspecified): the “activity change, negative = cytotoxicity” value was inactive: 16.1%.

In the case of `Cc1cccc(C)c1-n1ncc(C(=O)N2CCN(c3ncccn3)CC2)c1C1CCN(C(=O)OC(C)(C)C)CC1`, the “activity change, negative = cytotoxicity” value was inactive: 6.04%.

In the case of `CCCn1cc(S(=O)(=O)c2cc(C)ccc2C)c(=O)c2cc(F)c(N3CCN(CC)CC3)cc21`, the “activity change, negative = cytotoxicity” value was inactive: -12.3%.

On to `CCOC(=O)c1c(S(=O)(=O)NCC(=O)NCc2ccccc2Cl)c(C)n(C)c1C`, for which the “activity change, negative = cytotoxicity” value was inactive: -11.4%.

Regarding `CCOCCc1nnc(NC(=O)C(=O)c2cc(C)n(-c3ccc(Cl)cc3)c2C)s1`, the “activity change, negative = cytotoxicity” value is inactive: -1.04%.

On to `Cc1cc2n(n1)CCCN2C(=O)Nc1ccc(F)c(Cl)c1`, for which the “activity change, negative = cytotoxicity” value is inactive: 2.87%.

Consider `Cc1cc(OCC(=O)N2CCC(c3nc4ccccc4s3)CC2)ccc1Cl`, for which the “activity change, negative = cytotoxicity” value was inactive: -2.23%.

On to `O=C(CSc1ncc(-c2ccccc2)[nH]1)Nc1cccc(Br)c1`, for which the “activity change, negative = cytotoxicity” value is inactive: -24.1%.

Consider `Cc1ccc(-c2nnn3c2nc(NC2CCC(C)CC2)c2ccccc23)cc1` (stereo unspecified), for which the “activity change, negative = cytotoxicity” value is inactive: 7.43%.

`COc1cccc(-n2c(C)nc3cc(C(=O)O)ccc32)c1`: the “activity change, negative = cytotoxicity” value was inactive: -0.948%.

For `COc1cc2nc(NC(=O)c3ccc(S(=O)(=O)N4CCc5ccccc54)cc3)sc2cc1OC`, the “activity change, negative = cytotoxicity” value is inactive: 0.117%.

Take `CC1CCCCN1C(=O)c1ccc2c(c1)N(Cc1ccc(F)cc1)C(=O)c1ccccc1S2(=O)=O` (stereo unspecified): the “activity change, negative = cytotoxicity” value is inactive: 18.3%.

`COC(=O)CN1C(C(=O)c2ccccc2)=C(OC(=O)c2ccc(F)cc2)c2ccccc2S1(=O)=O`: the “activity change, negative = cytotoxicity” value was inactive: 8.76%.

With `CCC1CCCCN1C(=O)CSc1nnc(-c2ccc(OC)c(OC)c2)o1` (stereo unspecified), the “activity change, negative = cytotoxicity” value was inactive: 5.3%.

Turning to `CCOC(=O)c1ccc(NC(=O)N2CC3CCCN3c3ccccc32)cc1` (stereo unspecified), the “activity change, negative = cytotoxicity” value is inactive: -21.2%.

For `Cc1ccc2nc(-c3cccs3)c(Nc3ccc4c(c3)OCCO4)n2c1`, the “activity change, negative = cytotoxicity” value is inactive: 1.58%.

Turning to `CCOC(=O)N1CCN(Cc2nc3cc(NC(=O)c4ccccc4Cl)ccc3n2C(C)C)CC1`, the “activity change, negative = cytotoxicity” value was inactive: -19.7%.

On to `CC(=O)N1CCc2c(sc3c2c(=O)n(-c2ccccc2Cl)c(=O)n3Cc2cccc(C)c2)C1`, for which the “activity change, negative = cytotoxicity” value was inactive: 12.6%.

Regarding `CC(=O)c1cccc(NC(=O)CCc2c(C)nc3nc(CN)nn3c2C)c1`, the “activity change, negative = cytotoxicity” value was inactive: -14.7%.

With `COc1ccccc1NC(=O)CSc1cn(CC(=O)N2CCCC2)c2ccccc12`, the “activity change, negative = cytotoxicity” value is inactive: 10.9%.

Turning to `CCOc1ccc(NC(=O)c2ccc(F)c(S(=O)(=O)N(Cc3ccc(C(=O)OC)cc3)Cc3ccc(OC)c(OC)c3)c2)cc1`, the “activity change, negative = cytotoxicity” value is inactive: 6.54%.

Turning to `CCOc1ccc(N2CC(C)Cn3c2nc2c3c(=O)n(Cc3c(F)cccc3Cl)c(=O)n2C)cc1` (stereo unspecified), the “activity change, negative = cytotoxicity” value is inactive: 2.45%.

For `O=C(Cn1cc(C(=O)c2ccco2)c2ccccc21)Nc1ccccc1`, the “activity change, negative = cytotoxicity” value was inactive: 5.13%.

As to `CN(C)c1ncc(C(=O)NCc2ccc(Cl)cc2)cn1`, the “activity change, negative = cytotoxicity” value is inactive: -2.76%.

As to `COc1ccccc1NC(=O)C1=C(C)Nc2nc3ccccc3n2C1c1ccccc1Cl` (stereo unspecified), the “activity change, negative = cytotoxicity” value was inactive: 21.7%.

Regarding `COc1ccc(Cl)cc1Nc1ccc2cc(S(=O)(=O)N3CCCCC3)ccc2n1`, the “activity change, negative = cytotoxicity” value is inactive: -25.9%.

Consider `CCC(=O)N1CCc2cc(S(=O)(=O)NCc3ccc(C)cc3)ccc21`, for which the “activity change, negative = cytotoxicity” value was inactive: 0.482%.

For the compound `COc1ccc(-c2nc3sc(CCNC(=O)Cc4ccccc4)c(C)n3n2)cc1`, the “activity change, negative = cytotoxicity” value was inactive: 4.38%.

Take `COc1ccc(C)cc1NC(=O)c1nnn(Cc2cccc(Br)c2)c1N`: the “activity change, negative = cytotoxicity” value is inactive: -6.63%.

Regarding `COc1ccc(C2=NS(=O)(=O)N(C)C(C(=O)NC(C)c3ccccc3)=C2)cc1` (stereo unspecified), the “activity change, negative = cytotoxicity” value was inactive: 0.462%.

With `COc1ccc(CNC(=O)c2cnc(N3CCCC3)nc2C)c(OC)c1`, the “activity change, negative = cytotoxicity” value is inactive: -1.14%.

As to `CCOC(=O)c1cnc2ccc(OC)cc2c1Nc1ccc(OCc2ccccc2Cl)cc1`, the “activity change, negative = cytotoxicity” value is inactive: -12.6%.

As for `Cc1ccc(NC(=O)CCC(=O)N2Cc3ccccc3Oc3ncccc32)cc1Cl`, the “activity change, negative = cytotoxicity” value is inactive: 3.75%.

As for `COc1ccccc1CNC(=O)C(NS(=O)(=O)c1ccc2c(c1)CCN2C(C)=O)C(C)C` (stereo unspecified), the “activity change, negative = cytotoxicity” value is inactive: -2.23%.

Regarding `CCc1ccc(C(=O)c2cn(CC(=O)Nc3cc(OC)ccc3OC)c3ccc(Cl)cc3c2=O)cc1`, the “activity change, negative = cytotoxicity” value is inactive: 12.3%.

`Cc1ccc2oc(C(=O)Nc3ccc(S(=O)(=O)N4CCCCC4C)cc3)cc(=O)c2c1` (stereo unspecified): the “activity change, negative = cytotoxicity” value is inactive: 2.45%.

`CCN(CC)S(=O)(=O)c1ccc2c(c1)N(CC(=O)NCCCN1CCN(c3ccc(OC)cc3)CC1)C(=O)CO2`: the “activity change, negative = cytotoxicity” value is inactive: -0.577%.

Take `CCCS(=O)(=O)N1CCC(n2c(C)nc3cccnc32)CC1`: the “activity change, negative = cytotoxicity” value is inactive: 6.8%.

On to `CCN(C(=O)CSc1nc2ccccc2n1CC(=O)N(C)C1CCCCC1)c1ccccc1`, for which the “activity change, negative = cytotoxicity” value is inactive: 16.1%.

Regarding `CCOC(=O)c1cc(-c2ccccc2)n(CCC(=O)NCCc2ccccc2)c1C`, the “activity change, negative = cytotoxicity” value is inactive: -24%.

In the case of `CCOC(=O)c1cnc2c(ccc3ccccc32)c1Nc1cccc(Cl)c1`, the “activity change, negative = cytotoxicity” value was inactive: 3.76%.

With `COc1ccc(CCNC(=O)c2cnc3sc(N4CCOCC4)nn3c2=O)cc1`, the “activity change, negative = cytotoxicity” value is inactive: -2.07%.

As for `CCc1c(C)sc2c1CCN(Cc1ccccc1C#N)C2c1ccccc1` (stereo unspecified), the “activity change, negative = cytotoxicity” value was inactive: -29.7%.

Turning to `CCOc1ccc(CNC(=O)C2CCN(c3nc4ccccc4nc3C(F)(F)F)CC2)cc1OC`, the “activity change, negative = cytotoxicity” value was inactive: 2.84%.

As to `CC1CCN(c2oc(-c3cccs3)nc2S(=O)(=O)c2ccccc2)CC1`, the “activity change, negative = cytotoxicity” value was inactive: 0.432%.

Turning to `COc1ccc(-n2nc3ccc(NC(=O)c4cccc(OCCC(C)C)c4)cc3n2)cc1`, the “activity change, negative = cytotoxicity” value is inactive: 19%.

For the compound `Cc1nn(C)c2c1c(-c1ccccc1)cc(=O)n2Cc1ccc(F)cc1`, the “activity change, negative = cytotoxicity” value is inactive: 16.7%.

Take `Cc1ccc2c(c1)cc1c(=O)n(Cc3ccc(Cl)cc3)nc(C)n12`: the “activity change, negative = cytotoxicity” value was inactive: 10.3%.

For `COc1cccc(-c2cc(C(=O)Nc3ccc(Br)c(C)c3)[nH]n2)c1`, the “activity change, negative = cytotoxicity” value was inactive: -1.51%.

With `COc1ccc(-n2c(=O)c3ccc(C(=O)NCc4ccc(C)cc4)cc3n(Cc3cccc(Cl)c3)c2=O)cc1`, the “activity change, negative = cytotoxicity” value is inactive: -8.92%.

As to `CC1CCCCN1S(=O)(=O)c1cc2c(=O)nc3ccccn3c2cc1Cl` (stereo unspecified), the “activity change, negative = cytotoxicity” value was inactive: -0.823%.

Turning to `CCOc1ccc(C2C(C(=O)Nc3ccccc3OC)=C(C)Nc3c(C(=O)Nc4cccc(C)c4)cnn32)cc1` (stereo unspecified), the “activity change, negative = cytotoxicity” value was inactive: -1.01%.

Turning to `O=C1CC(c2nnc(Cc3cccc(Cl)c3)o2)CN1c1ccccc1` (stereo unspecified), the “activity change, negative = cytotoxicity” value is inactive: -11.2%.

For `Cc1cccc(C)c1NS(=O)(=O)c1ccc2c(c1)[C@H]1C=CC[C@H]1[C@@H](c1ccc(Cl)cc1)N2`, the “activity change, negative = cytotoxicity” value was inactive: -14.1%.

For `CCn1c(CC2C(=O)Nc3ccccc32)nc2ccccc2c1=O` (stereo unspecified), the “activity change, negative = cytotoxicity” value is inactive: 4.25%.

For `COc1ccc(CN(Cc2ccco2)C(=O)c2ccccc2F)cc1`, the “activity change, negative = cytotoxicity” value is inactive: -0.0399%.

As for `Cc1ccccc1Cn1c2ccccc2c2cnn(CC(=O)NCCCc3ccccc3)c(=O)c21`, the “activity change, negative = cytotoxicity” value was inactive: 17.5%.

Consider `COc1cccc(Cc2nc3ccccc3nc2SCC(=O)N2CCN(c3ccccc3)CC2)c1`, for which the “activity change, negative = cytotoxicity” value is inactive: -1.06%.
